# Measurements taken from article PMC4336329 (PLoS ONE, 2015).
# Out of some 310,000 compounds screened, about 14,000 (4.5%) showed an effect of 50% or more. Effects have a minus sign here. The list shows a part of the results.
# Target: human ether-à-go-go-related gene (hERG) potassium channel (human, UniProt Q12809)
# Experiment: primary screen, population patch clamp on CHO cells stably expressing hERG
# 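Further: peak tail current of the secondary pulse compared with the same well before compound.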
# Sequence of human ether-à-go-go-related gene (hERG) potassium channel (Q12809 whole entry, looked up): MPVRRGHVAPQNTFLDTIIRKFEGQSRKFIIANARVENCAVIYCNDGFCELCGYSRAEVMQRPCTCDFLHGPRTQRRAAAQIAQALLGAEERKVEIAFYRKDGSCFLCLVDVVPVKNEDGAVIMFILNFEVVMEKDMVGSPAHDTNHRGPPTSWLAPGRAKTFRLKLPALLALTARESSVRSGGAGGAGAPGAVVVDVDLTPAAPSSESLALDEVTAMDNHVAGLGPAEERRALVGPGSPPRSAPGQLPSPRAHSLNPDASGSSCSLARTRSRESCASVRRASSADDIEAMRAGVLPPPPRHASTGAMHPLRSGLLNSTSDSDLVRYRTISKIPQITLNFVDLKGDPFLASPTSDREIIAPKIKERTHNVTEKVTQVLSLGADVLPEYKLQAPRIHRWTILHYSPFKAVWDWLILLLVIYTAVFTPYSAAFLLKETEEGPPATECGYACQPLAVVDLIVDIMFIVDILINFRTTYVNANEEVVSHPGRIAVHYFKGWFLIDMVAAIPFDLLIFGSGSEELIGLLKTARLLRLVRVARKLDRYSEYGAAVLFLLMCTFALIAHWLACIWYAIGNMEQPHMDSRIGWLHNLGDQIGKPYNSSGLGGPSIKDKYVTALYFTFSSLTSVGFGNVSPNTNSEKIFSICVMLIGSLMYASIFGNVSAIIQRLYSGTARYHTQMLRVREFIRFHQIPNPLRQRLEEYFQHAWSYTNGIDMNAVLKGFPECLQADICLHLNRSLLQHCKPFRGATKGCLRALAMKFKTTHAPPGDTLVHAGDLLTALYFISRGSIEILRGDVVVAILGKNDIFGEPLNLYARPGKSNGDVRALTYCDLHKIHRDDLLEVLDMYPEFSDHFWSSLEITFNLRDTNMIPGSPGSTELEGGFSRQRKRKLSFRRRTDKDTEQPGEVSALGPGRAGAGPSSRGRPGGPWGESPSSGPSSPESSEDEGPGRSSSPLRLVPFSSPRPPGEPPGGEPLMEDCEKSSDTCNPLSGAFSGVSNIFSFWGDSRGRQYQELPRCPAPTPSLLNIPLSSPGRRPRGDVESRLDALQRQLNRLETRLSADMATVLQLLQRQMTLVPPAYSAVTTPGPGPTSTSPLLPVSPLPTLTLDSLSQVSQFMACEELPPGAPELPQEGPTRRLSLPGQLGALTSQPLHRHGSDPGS
row,SMILES,"hERG current change (%, negative = inhibition) at 10uM [%]"
1,CN1CCN(C2=Cc3ccccc3Sc3cc(F)c(F)cc32)CC1.CS(=O)(=O)O,-22.5
2,CCOC(=O)N1CCN(CC(=O)N2c3ccccc3Sc3ccccc32)CC1.O=C(O)C(=O)O,2.33
3,CC(=O)c1cccc(OC(=O)c2cc(S(=O)(=O)N3CCOCC3)ccc2N2CCCC2)c1,-28.4
4,CCN(c1ccccc1)S(=O)(=O)c1ccc(C(=O)Nc2nnc(C3CC3)o2)cc1,-3.31
5,CC(=O)c1c(C)nc(Nc2nc(C)c3cc(C)ccc3n2)nc1C,10.6
6,O=C(Nc1nc(-c2cccs2)cs1)c1ccco1,-6.94
7,COc1ccc(C(=O)Nc2c(N)nc(SCC(=O)NCC3CCCO3)[nH]c2=O)cc1OC (centres unmarked),-21.4
8,CCOCCCN1C(=O)CN(C2CCCCC2)C(=O)C1c1ccc(OCC)c(OC)c1 (centres unmarked),3.29
9,Cc1ccc(O)c(/C=N/NC(=O)COc2ccc3c(C)cc(=O)oc3c2)c1,2.09
10,O=[N+]([O-])c1ccccc1/C=N/n1c(-c2cccnc2)n[nH]c1=S,15.9
11,CNC(=O)NC(=O)CSc1ccc(S(=O)(=O)N2CCOCC2)cn1,2.81
12,Cc1ccc(CNS(=O)(=O)/C=C/c2ccc3c(c2)OCO3)cc1,-14.1
13,Cc1cc(Nc2ccccc2F)n2ncnc2n1,0.765
14,COCCCNC(=S)NNC(=S)Nc1ccccc1,26.2
15,O=C(COc1ccc(/C=N/NS(=O)(=O)c2ccccc2)cc1)Nc1cccc(Cl)c1,-3.5
16,COC(=O)CN1C(CN2CCOCC2)=Nc2ccc(Br)cc2C1c1ccccc1 (centres unmarked),-75.3
17,Cc1nn(-c2ccccc2)c(Cl)c1/C=N/NC(=O)c1ccc(CNc2ccccc2)o1,0.462
18,Cc1ccc(C)c(SCC(=O)Nc2oc(C)c3c(C)n[nH]c(=O)c23)c1,-52.4
19,COc1ccccc1-n1c(O)c(C=NCc2ccc3c(c2)OCO3)c(=O)[nH]c1=O,9.11
20,O=C(NCCS(=O)(=O)N1CCC2(CC1)OCCO2)c1ccc(F)cc1,8.92
21,CC(=O)Cc1nsc(Nc2ccc(C)cc2)n1,21
22,Cc1cc(C)c(S(=O)(=O)c2cccc(C)c2C)c(=O)[nH]1,10
23,Cc1cc2ccccn2c1C(=O)c1nc(NCc2ccccc2)ncc1Cl,11.8

row,SMILES,"hERG current change (%, negative = inhibition) at 10uM [%]"
1,CCOc1ccccc1Nc1nc(-c2cccnc2)cs1,1.95
2,COc1ccc(N2CCN(C(=O)CSc3nc4[nH]ncc4c(=O)n3-c3ccc(Br)cc3)CC2)cc1,-12.9
3,CCn1nnc(NC(=O)c2sc3ccccc3c2Cl)n1,-7.46
4,CC/C(=N/Nc1ccc(Cl)cc1)c1cnnc(SC)n1,8.85
5,O=C(NCc1ccc(F)cc1)C1CCCN1C(=O)Nc1ccccc1 (centres unmarked),-2.89
6,Cc1nc2nc(NCc3cccs3)nn2c(C)c1Cl,-12.9
7,CN1CCN(S(=O)(=O)c2ccc3c(c2)oc(=O)n3C)CC1,13.4
8,O=C(CN1CCC(NC(=O)c2ccco2)CC1)Nc1ccccc1C(F)(F)F,-23.8
9,Cc1ccc(/C=N/N2CCN(Cc3cccc4ccccc34)CC2)s1,-3.05
10,COc1cccc(CNc2cc(CSc3ccc(Cl)cc3)nc(C)n2)c1,-7.29
11,CCc1nnc(NS(=O)(=O)c2ccc(NC(=O)Nc3ccc(OC)cc3)cc2)s1,26.3
12,Cl.FC(F)(F)c1ccccc1/C=N/N1CCN(Cc2ccccc2)CC1,-2.71
13,CCC(=O)N1CCN=C1SCc1cc(C)ccc1C,-2.85
14,CN(C(=O)Cn1nc(Cl)ccc1=O)C1CCCN(Cc2ccccc2F)C1 (centres unmarked),19.3
15,COc1ccccc1C(=O)Nc1nnn(C)n1,11.3
16,O=C(O)c1cc(C(F)(F)F)nc2c(C(F)(F)F)cccc12,19.5
17,Cc1occc1C(=O)Nc1nnc(-c2cccs2)s1,11.2
18,CCOP(=O)(OCC)C(NC(=O)Nc1ccc(Cl)cc1)C(=O)N(CC)CC (centres unmarked),-13.4
19,C=CCN1N=C(/C=C/c2ccc(OC)cc2)CCC1=O,6.48
20,Cc1[nH]c2ccccc2c1C(=O)COC(=O)Cn1c(C(F)(F)F)nc2ccccc21,5.54
21,C/C(CC(=O)NC1CCCC1)=N\NC(=O)Cc1csc(N)n1,15.5
22,O=C(CSCc1ccccc1Cl)Nc1ccc2c(c1)OCCO2,-10.4
23,O=C(O)CCCc1ccc(N(CCCl)CCCl)cc1,12.4

row,SMILES,"hERG current change (%, negative = inhibition) at 10uM [%]"
1,COc1cc(OC)cc(C(=O)N[C@H](C(=O)Nc2ccc(F)cc2F)C(C)C)c1,18.3
2,COC(=O)C1=C(C)N(CCc2cc(OC)c(OC)c(OC)c2)C(=O)N[C@H]1c1ccccc1,8.82
3,COc1ccc(C(=O)Nc2nc(N)n(-c3ccccc3)n2)cc1,-11.4
4,CCC(=O)c1ccc(OCC(=O)OCC(=O)Nc2ccc(C)c(S(=O)(=O)N3CCCCC3)c2)cc1,17.3
5,Cc1ccc(C)c(N2CCN(C(=O)CCCOc3cc(=O)n(C)c4ccccc34)CC2)c1,-40.8
6,Cn1c(Cc2ccccc2)nnc1SCC(=O)Nc1ccc2c(c1)OCO2,5.64
7,CC(C)(C)c1ccc(S(=O)(=O)N2CCSC2)cc1,14.7
8,CC(=O)NCCn1c(SCC#N)nc2ccccc2c1=O,6.09
9,CCCSCCCNC(=O)c1ccc(C)c(NC(=O)C2=C(C)OCCS2)c1,-19.8
10,CCN(C(=O)c1c(C)cc(=O)oc1C)c1ccc2c(c1)OCO2,5.29
11,O=C(CCc1ccc(S(=O)(=O)NCc2ccccc2)cc1)NCc1ccco1,-7.81
12,Cc1ccc(-c2csc(N3CCC(NS(=O)(=O)c4ccc5c(c4)OCCO5)CC3)n2)cc1,9.55
13,CCOCCCNC(=O)N[C@H](C(=O)OC)C(C)CC (some centres unmarked),4.32
14,O=C(c1ccc([N+](=O)[O-])cc1)n1nc(-c2ccccc2)nc1NCc1ccc(F)cc1,11.8
15,COCCNC(=O)c1ccc(CN2CCC(Cc3ccccc3)CC2)cc1,-11.6
16,CCOc1ccc(C(O)Cn2c(=N)n(CCN3CCCCC3)c3ccccc32)cc1.Cl (centres unmarked),-77.2
17,C=C1CC(C)OC(c2ccccc2OCC(O)CN2CCCCC2)C1 (centres unmarked),-72.4
18,Cc1ccc(C(=O)OC(C(=O)O)C(OC(=O)c2ccc(C)cc2)C(=O)O)cc1 (centres unmarked),7.48
19,O=C(NNc1cc(N2CCOCC2)nc(N2CCOCC2)n1)c1ccc(Cl)cc1Cl,3.39
20,O=[N+]([O-])c1c(C(Cl)Cl)nn(-c2ccc(Cl)cc2)c1N1CCCCC1,5.67
21,C=CCn1c(SCc2ccc3nonc3c2)nnc1-c1cccs1,-68.7
22,Nc1cc(N)nc(SCc2nnnn2-c2ccc(Cl)cc2)n1,0.246
23,CC(CCc1ccccc1)NC(=O)COC(=O)c1cccc(N(C)C)c1 (centres unmarked),-19.1

row,SMILES,"hERG current change (%, negative = inhibition) at 10uM [%]"
1,COc1ccc(NC(=O)c2cccnc2)c([N+](=O)[O-])c1,24
2,O=C(CSc1nnc(CNC(=O)c2cccs2)o1)Nc1ccccc1C(F)(F)F,-21.2
3,O=C(O)c1ccc(-n2nc(C(F)(F)F)c3c2CCCC3)cc1,21.1
4,COCCNC(=O)C(c1ccc(F)cc1)N(C(=O)CCC(=O)Nc1nccs1)c1ccc(C)cc1 (centres unmarked),-14.1
5,CCOC(=O)c1c(CSCc2ccccc2)oc2ccc(O)c(CN(C)C)c12.Cl,-73.4
6,CCCC1=C(C(=O)OCC)C(c2ccccc2OC)NC(=O)N1 (centres unmarked),9.13
7,CC1(C)CC(=O)C2=C(C1)N(c1ccc(F)cc1)C(N)=C(C#N)C2c1cccs1 (centres unmarked),-2.09
8,O=C1Nc2ccccc2/C1=N\N1CCOCC1,2.95
9,CCC(=O)NC(c1cc(Cl)c2cccnc2c1O)C1CC1 (centres unmarked),-4.46
10,Cc1ccc(N2CCN(/N=C/c3ccccc3)CC2)cc1,14
11,Cc1ccn(-c2cccc(-n3ccc(C)n3)n2)n1,9.59
12,COCCn1nnnc1CN1CCN(c2cccc(C(F)(F)F)c2)CC1,-9.2
13,Cc1csc2c(SCC(=O)NNC(=O)C(Cl)Cl)ncnc12,0.752
14,O=S(=O)(c1ccc(F)c(F)c1)N1CCN(c2ccccn2)CC1,1.99
15,CC1CCN(CC(=O)Nc2ccc(S(=O)(=O)NC3CC3)cc2)CC1.O=C(O)C(=O)O,-15.4
16,C=CCn1c(=O)n(C(=O)OCC)c2cc(Br)ccc21,-50.2
17,COc1ccc(C(=O)Nn2cnc3ccccc3c2=O)c(OC)c1,8.59
18,CCc1ccc(NC(=O)CCn2cccc2)cc1,5.24
19,O=c1ccc(S(=O)(=O)N2CCCC2)cn1Cc1ccc(Cl)cc1Cl,-14.2
20,O=C(Nc1ccccc1)OCc1cnc(Cl)s1,14.7
